The source gives no read counts; variants with many changes may rest on few reads.
B1: LINE1-mini (parent)
chain: GGCAGAGCUCAACACAGCGUGGCAAAGUGGCUGUGGCUAGACUGCC

Variants of: B1
Assay: self-cleavage, relative activity (ratio to wild type); higher = more cleavage; in vitro, sequencing; the parent is a self-cleaving ribozyme

Variant	self-cleavage
GGCAGAGCUCAUUACAGCGUUGCAAAGUGGCUGUGGCUAGACUGCC [A12U C13U G21U]	0.21
GGCAGAGCUCAUUACAGCGUGGCAAAGAGGCUGUGGCUAGACUGAC [A12U C13U U28A C45A]	0.14
GGCAGAGCUCAUCAAAGCGUGGCAAAAAAGCUAUGGCUAGACUGCC [A12U C15A G27A U28A G29A G33A]	0.04
GGCAGAGCUCAUCAAAGCGUGGCAAAGUGGCGGUGGAUAGACUGCC [A12U C15A U32G C37A]	0.03
GGCAGAGCUCAUCAGAGCGUGGCAAAGUGGCUGUGGCUAGACAGCC [A12U C15G U43A]	0.02
GGCAGAGCUCAUCAGAGCGUGGCAAAGUGGCUGUGGCUAGACCGCC [A12U C15G U43C]	0.02
GGCAGAGCUCAUCAUAGGGUAGCAAAGUGGCUGUCGCUAGACUGCG [A12U C15U C18G G21A G35C C46G]	0.04
GGCAGAGCUCAUCAUAGCGUGGCAAAGUGGAUGUGGCUAGACUGCC [A12U C15U C31A]	0.01
GGCAGAGCUCAUCAUAGCGUGGCAAAGUGACUGUGGCUAGACUGCC [A12U C15U G30A]	0.08
GGCAGAGCUCAUCACAGAGUGGCAAAGUGGUUUUGGCUAGACUGCC [A12U C18A C31U G33U]	0.03
GGCAGAGCUCAUCACAGAGUGGCAAAAUGGCUGCGGCUAGACUGCC [A12U C18A G27A U34C]	0.05
GGCAGAGCUCAUCACAGUGUGGCAAUGUGGCUGUGGCUAGACUGCC [A12U C18U A26U]	0.75
GGCAGAGCUCAUCACAGUGUGGCAAAGUGGCUGUGGCUAGACUCCC [A12U C18U G44C]	0.04
GGCAGAGCUCAUCACAGUGAGGGGAAGUGGCUGUGGCUAGACUGCC [A12U C18U U20A C23G A24G]	0.38
GGCAGAGCUCAUCACAGCGUGGAAAAGAGGCAGUGGUUAGACUGCC [A12U C23A U28A U32A C37U]	0
GGCAGAGCUCAUCACAGCGUGGCAAAGUGGAUGUGGAUAUACUGCC [A12U C31A C37A G40U]	0.07
GGCAGAGCUCAUCACAGCGUGGCAAAGUGGGGGUGGCUAGACUGCC [A12U C31G U32G]	0.06
GGCAGAGCUCAUCACAGCGUGGCAAAGUGGUUGUGGCUGGACUGCC [A12U C31U A39G]	0.04
GGCAGAGCUCAUCACAGCGUGGCAAAGUGGCUGUGGAUAGAGUGCC [A12U C37A C42G]	0.19

Variant	self-cleavage
GGCAGAGCUCAUCACAACGUUGCAAAGUGGCUGUGGCUAGACUGCC [A12U G17A G21U]	0.06
GGCAGAGCUCAUCACACCGUGUCAAAGUGGCUGUGGCUAGACUGCC [A12U G17C G22U]	0.03
GGCAGAGCUCAUCACAUCGUGGCAAAGUGGGUGUGGCUAGACUAAC [A12U G17U C31G G44A C45A]	0.06
GGCAGAGCUCAUCACAUCCUGGCAAAGUGGUUGUGGCUAGACUGCC [A12U G17U G19C C31U]	0.08
GGCAGAGCUCAUCACAGCCUGGCGAAGUGGCUGCGGCUAGAGUUCC [A12U G19C A24G U34C C42G G44U]	0.03
GGCAGAGCUCAUCACAGCCUGGCAAAGUGGCUGUGGUUAGACUGUC [A12U G19C C37U C45U]	0.01
GGCAGAGCUCAUCACAGCUUGGUAUAGUGGCUGUGGCUAGACUGCC [A12U G19U C23U A25U]	0.51
GGCAGAGCUCAUCACAGCUUUGCUAAGUGGCUGUGGCUAGACUGCC [A12U G19U G21U A24U]	0.07
GGCAGAGCUCAUCACAGCUUGGCAAAGUGGCUGUGGCAAGACUGCC [A12U G19U U38A]	0.03
GGCAGAGCUCAUCACAGCGUAGCAAAAUGGCUGUGGCUAGACUGCC [A12U G21A G27A]	0.27
GGCAGAGCUCAUCACAGCGUCGCAAAGUGGCUGUGGGUAGACUGCC [A12U G21C C37G]	0
GGCAGAGCUCAUCACAGCGUUGCAAAGGGGCUGUGGCUAGACUGCC [A12U G21U U28G]	0.43
GGCAGAGCUCAUCACAGCGUUGCAAAGUGGCAGUGGGUAGACUUCC [A12U G21U U32A C37G G44U]	0.02
GGCAGAGCUCAUCACAGCGUGACAAGGUUGCUGUGGCUAGACUGCC [A12U G22A A26G G29U]	0.08
GGCAGAGCUCAUCACAGCGUGCCAAACUGGCUUUGGCUAAACUGCC [A12U G22C G27C G33U G40A]	0.03
GGCAGAGCUCAUCACAGCGUGGCAAACUGGCUGUGGCUAGAUUGCC [A12U G27C C42U]	0.02
GGCAGAGCUCAUCACAGCGUGGCAAACUUGUUGUGGAUAGACUGCC [A12U G27C G29U C31U C37A]	0
GGCAGAGCUCAUCACAGCGUGGCAAACCGGCUGUGGCUAGACUGCC [A12U G27C U28C]	0.19
GGCAGAGCUCAUCACAGCGUGGCAAAUUGGCUCUGGCUAGACUGCC [A12U G27U G33C]	0.01

Variant	self-cleavage
GGCAGAGCUCAUCACAGCGUGGCAAAGUCGCUGUAGCUAGACUGCC [A12U G29C G35A]	0.08
GGCAGAGCUCAUCACAGCGUGGCAAAGUGACUGUGGAUAGACUGCC [A12U G30A C37A]	0
GGCAGAGCUCAUCACAGCGUGGCAAAGUGACUGUGGGUAGACUGCC [A12U G30A C37G]	0.02
GGCAGAGCUCAUCACAGCGUGGCAAAGUGACUGUGGUUAGACUACC [A12U G30A C37U G44A]	0.02
GGCAGAGCUCAUCACAGCGUGGCAAAGUGUCUGUGGUUAGACUGCC [A12U G30U C37U]	0.01
GGCAGAGCUCAUCACAGCGUGGCAAAGUGUCUGUAGCUAGACUGCC [A12U G30U G35A]	0.15
GGCAGAGCUCAUCACAGCGUGGCAAAGUGGCUAUGGGUAGACUGCC [A12U G33A C37G]	0.05
GGCAGAGCUCAUCACAGCGUGGCAAAGUGGCUGUGCCUAGAGUGCC [A12U G36C C42G]	0
GGCAGAGCUCAUCACAGCGAGGCAAAGUGGCUGUGGCUAGACCGCC [A12U U20A U43C]	0.2
GGCAGAGCUCAUCACAGCGCGGCAAAGUGGGUGUGACUAGACUGCU [A12U U20C C31G G36A C46U]	0.01
GGCAGAGCUCAUCACAGCGCGACAAAGUGGCUGUGGCUCGACUGCC [A12U U20C G22A A39C]	0.07
GGCAGAGCUCAUCACAGCGGGGCGAAGUGCCUGUACCUAGACUGCC [A12U U20G A24G G30C G35A G36C]	0.02
GGCAGAGCUCAUCACAGCGGGGCAAAGUGGAUGUGGCUAGAUUGCC [A12U U20G C31A C42U]	0.05
GGCAGAGCUCAUCACAGCGUGGCAAAGAGGCUGUGGCGAGACUGCC [A12U U28A U38G]	0.01
GGCAGAGCUCAUCACAGCGUGGCAAAGCGGCUGUGGCUAGCCUGUC [A12U U28C A41C C45U]	0.01
GGCAGAGCUCAUCACAGCGUGGCAAAGCGGCUGUCGCUAGACUGCC [A12U U28C G35C]	0.02
GGCAGAGCUCAUCACAGCGUGGCAAAGUGGCACCGGCUAGACUACC [A12U U32A G33C U34C G44A]	0.04
GGCAGAGCUCAUCACAGCGUGGCAAAGUGGCCGUGGCUAGCCGGCC [A12U U32C A41C U43G]	0.05
